{"source": "PubChem BioAssay AID686971", "about": "(National Center for Advancing Translational Sciences (NCATS), 2013)", "note": "Screen size: about 360,000 compounds; about 7,500 (2.1%) were called active. This list was built around the results that the source calls inconclusive (neither active nor inactive); the mix of calls is not that of the screen. Calls come from the whole dose curve; as a rule, active = well fitted cell-killing curve with a large enough effect; inconclusive = small, poorly fitted or top-dose-only effect, or effect the other way, or another doubt; inactive = no such curve, though single readings can be large or run the other way. No potency is given beside an inconclusive call; the fits are too rough. Potency is the fitted concentration of half-maximal effect; tags give direction and shape of the fitted curve."}
{"assay": "qHTS for induction of synthetic lethality in tumor cells producing 2HG: qHTS for the HT-1080-IDH1KD cell line", "conditions": "HT-1080 IDH1 knockdown viability, ATP luminescence, 48 h; series mostly up to 46.1 µM", "in_short": "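Luminescent ATP read-out (CellTiter-Glo, 10 min at room temperature) after 48 h compound exposure at 37 °C gave viability of IDH1-knockdown HT-1080 cells. Activity was normalised to DMSO and cell-free wells, then fitted as concentration-response curves.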"}
{"smiles": "Cc1noc(C)c1COc1cccc(C(=O)N2CCN(C/C=C/c3ccccc3)CC2)c1", "Potency": "inconclusive [cytotoxic, single point]"}
{"smiles": "Cc1ccc(Cc2c(-c3ccco3)nc3c4ccccc4ccn23)cc1", "Potency": "active: 20.6 µM"}
{"smiles": "COc1ccc2c3c([nH]c2c1)[C@H]1C[C@H]2[C@H](C[C@@H](O)[C@H](OC)[C@H]2C(=O)O)CN1CC3", "Potency": "inconclusive [cytotoxic, partial curve, poor fit]"}
{"smiles": "Cc1cccc(N2CCN(CCCNC(=O)C3CCCN(c4ncnc5c4nc4n5CCCCC4)C3)CC2C)c1", "note": "(stereo not drawn)", "Potency": "active: 16.4 µM"}
{"smiles": "COc1ccc(-c2cn3cc(C(F)(F)F)cc(Cl)c3n2)cc1", "Potency": "inconclusive [cytotoxic, single point]"}
{"smiles": "O=C(CSC1CS(=O)(=O)c2cc([N+](=O)[O-])ccc21)NNC(=O)c1ccccc1", "note": "(stereo not drawn)", "Potency": "inconclusive [cytotoxic, partial curve]"}
{"smiles": "CCCC(=O)NC(Nc1cc(C(F)(F)F)ccc1Cl)C(Cl)(Cl)Cl", "note": "(stereo not drawn)", "Potency": "inconclusive [cytotoxic, single point]"}
{"smiles": "COc1ccc(C2=NN(C(=O)/C=C/c3ccccc3)C(c3ccccc3)C2)c(OC(C)=O)c1", "note": "(stereo not drawn)", "Potency": "inconclusive [cytotoxic, single point]"}
{"smiles": "O=C(NNc1nc(-c2ccc(Cl)cc2)cs1)c1ccco1", "Potency": "inconclusive [cytotoxic, single point]"}
{"smiles": "C=CC[C@H](CC(=O)N(CCO)Cc1ccccc1)C(=O)N[C@@H](COC(=O)[C@@H](CC=C)Cc1ccc(F)cc1)Cc1ccccc1", "Potency": "inconclusive [cytotoxic, single point]"}
{"smiles": "O=C(NN1C(=O)/C(=C/c2cccs2)SC1=S)c1ccccc1", "Potency": "inactive"}
{"smiles": "CCN(CC(=O)Nc1cc(S(=O)(=O)N2CCOCC2)ccc1C)Cc1ccccc1", "Potency": "inactive"}
{"smiles": "CCC(=O)N1c2ccc(S(=O)(=O)N3CCN(c4ccc([N+](=O)[O-])cc4)CC3)cc2CC1C", "note": "(stereo not drawn)", "Potency": "active: 6.51 µM"}
{"smiles": "CCNc1nc(NCC)nc(SCCOc2ccc(C)cc2)n1", "Potency": "inconclusive [cytotoxic, single point]"}
{"smiles": "Cc1cc(C)n(-c2ccc(NC(=O)C3CCCCN3Cc3cccc4c3OCO4)cc2)n1", "note": "(stereo not drawn)", "Potency": "inconclusive [cytotoxic, single point]"}
{"smiles": "Cc1occc1C(=O)Nc1cc(C(C)(C)C)on1", "Potency": "inconclusive [cytotoxic, single point]"}
{"smiles": "O=C(CCC(=O)N1CCN(S(=O)(=O)c2ccccc2)CC1)c1ccc(Br)cc1", "Potency": "inactive"}
{"smiles": "CC(C)(C)c1cc(C(=O)N/N=C/c2ccc(-c3ccccc3[N+](=O)[O-])o2)n[nH]1", "Potency": "inconclusive [cytotoxic, single point]"}
